Source: PubChem BioAssay AID686979 (National Center for Advancing Translational Sciences (NCATS), 2013)
“And” between values parts separate entries of the source, which are not always exact repeats. Equal entries are not always repeated. Hit rate of the full screen: of about 420,000 compounds, about 50,000 (12%) were called active. The shares of active, inactive and inconclusive entries below differ from those in the screen. The call rests on the fitted dose curve; in most records, active means well fitted inhibition curve with a large enough effect; inconclusive means small, poorly fitted or top-dose-only effect; inactive means flat fitted curve, though single readings scatter. Potencies beside an inconclusive call are fits to weak or partial responses and may not hold up.

Assay: qHTS for Inhibitors of human tyrosyl-DNA phosphodiesterase 1 (TDP1): qHTS in cells in presence of CPT; further: nearly all actives have a fitted effect of over 55% in size
Details: chicken DT40 Tdp1-/-;hTDP1 cells + 20 nM CPT, ATP luminescence, 48 h; activity change, negative = growth inhibition: at 46.2 µM (top of the series) unless noted
In short: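 Chicken DT40 Tdp1-/- cells complemented with human TDP1, 400 cells/well, exposed to compounds plus 20 nM camptothecin for at least 48 h at 37 C; viability read as ATP content by CellTiter-Glo luminescence.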
On the % scale 0 is the no-effect control and ±100 the full control effect; potency means the concentration at half of the fitted maximal effect; tags describe the fitted curve by direction and shape.

Compound | Potency | activity change, negative = growth inhibition
COc1ccc(OCCCn2c(C)nc3cc(C)c(C)cc32)cc1 | active: 11.6 µM | 
CCOC(=O)c1sc(NC(=O)Nc2ccc(Cl)cc2)cc1C | active: 5.8 µM | 
CCC1=C(c2ccc(C)cc2)S(=O)(=O)N=C1N1CCC(C(=O)NCCc2cccc(OC)c2)CC1 | inconclusive: 20.6 µM [inhibitor, single point] | 
COc1cccc2c1cc1c(=O)n(CC(=O)NCCCN3CCN(C)CC3)nc(C)n12 | inactive | 
Cc1oc(-c2ccccc2F)nc1CS(=O)(=O)CC(=O)NCCCN1CC(C)CC(C)C1 (configuration not stated) |  | inactive: -7.81%
COc1cc(CN2CCCC(C(=O)c3ccc(SC)cc3)C2)cc(Cl)c1O (configuration not stated) | active: 11.6 µM | 
COc1ccnc(Oc2ccccc2)c1C(=O)N/C=N/OCc1ccccc1 |  | inactive: -7.9%
COc1ccc(-c2nc3cc(C)ccc3cc2CN(C(=O)c2cccs2)C2CC2)cc1OC | inconclusive: 20.6 µM [inhibitor, single point] | 
CC1=CC(=C(C#N)C#N)C=C(C)N1CCN1CCN(C(=O)Nc2ccc(Cl)c(Cl)c2)CC1 | inconclusive: 9.2 µM [inhibitor, partial curve] | 
CC(C)NC(=O)Nc1cccc2c1O[C@H](CN(C)S(=O)(=O)c1ccccc1)[C@@H](C)CN([C@H](C)CO)C2=O |  | inactive: -11.1%
CCc1c(C)sc(NC(=O)C2CC(c3c(F)cccc3Cl)=NO2)c1C#N (configuration not stated) | active: 16.4 µM | 
Cn1cc(CCNCc2cn[nH]c2-c2ccc(-c3ccccc3)cc2)cn1 | inconclusive: 18.4 µM [inhibitor, partial curve, poor fit] | 
Clc1ccc(-n2nnnc2-c2cnc3ccc(Cl)cc3c2-c2ccccc2)cc1 | inconclusive: 25.9 µM [inhibitor, single point] | 
CCOc1ccc(N/C(N)=N/c2nc(CSc3nnnn3-c3ccccc3)cc(=O)[nH]2)cc1 | active: 16.4 µM | 
CCCCCCC(=O)Nc1c2c(nc3ccccc13)N(C)CC2 | inconclusive: 20.6 µM [inhibitor, single point] | 
Cn1nnnc1SCCCNCc1cc(Cl)ccc1OCc1ccccc1 | inconclusive: 29.1 µM [inhibitor, single point] | 
CN(C(=O)CC1C(=O)NCCN1Cc1ccccc1C(F)(F)F)C1CCOCC1 (configuration not stated) | inconclusive: 18.4 µM [inhibitor, single point] | 
O=C1Nc2ccc(S(=O)(=O)NCC3CCCO3)c3cccc1c23 (configuration not stated) |  | inactive: -4.98%
Cn1c(C(=O)OC(C(=O)NCC2CCCO2)c2cccnc2)cc2sccc21 (configuration not stated) |  | inactive: -5.49%
CC(C)c1nn2c(=O)cc(COC(=O)c3ccc4c(c3)OCO4)nc2s1 | inconclusive: 16.4 µM [inhibitor, single point] | 
c1ccc(CSc2nnc(SCc3ccccn3)s2)nc1 |  | inactive: -27.9%
Cc1cc(C)c(NC(=O)c2cc(S(=O)(=O)N3CCOCC3)ccc2F)c(C)c1 | inconclusive: 29.1 µM [inhibitor, single point] | 
COc1cc(C(=O)N(C(C)C)C2CCCCC2)cc(OC)c1OC | active: 11.6 µM | 
CC(=O)Nc1ccc(NC(=O)CSc2nc(N)c(NC(=O)c3ccccc3F)c(=O)[nH]2)cc1 |  | inactive: 6.51%

Compound | Potency | activity change, negative = growth inhibition
C[C@H](CO)N1C[C@H](C)[C@@H](CN(C)C(=O)NC2CCCCC2)Oc2c(NC(=O)C3CCCCC3)cccc2C1=O |  | inactive: -18.7%
O=C(C[n+]1ccccc1)Nc1ccc(Oc2ccccc2)cc1 | active: 11.6 µM | 
Cc1ccc(NC(=O)CCS(=O)(=O)c2cc3[nH]c(=O)c(=O)[nH]c3cc2C)cc1 |  | inactive: 5.7%
Cc1nc(SCC(=O)NCc2ccco2)[nH]c(=O)c1C | active: 23.1 µM | 
COCCNC(=O)c1ccc(-c2ccc(OC)cc2C)c2ccoc12 | inconclusive: 29.1 µM [inhibitor, single point] | 
NNC(=S)NCc1cccnc1 | inconclusive: 29.1 µM [inhibitor, single point] | 
O=C(c1cccc(Cl)c1)N1CCN(Cc2ccncc2)CC1 |  | inactive: -10.8%
CCOc1ccc(C(=O)Cn2cnnc2C#N)cc1 |  | inactive: 13.5%
O=C1NC2(CCCCC2)C(=O)N1/N=C/c1ccc(O)cc1O | inconclusive: 29.1 µM [inhibitor, single point] | 
COc1ccc(Cc2nc3ccc(C(=O)NCCCSC)cc3o2)cc1OC | inconclusive: 23.1 µM [inhibitor, single point] | 
Cc1cc2ccccc2c(=O)n1CC(=O)NCCC1=CCCCC1 | inconclusive: 29.1 µM [inhibitor, single point] | 
COc1ccc(S(=O)(=O)N(CCCN2CCCC2=O)Cc2cc3c(C)cc(C)cc3[nH]c2=O)cc1 | inconclusive: 29.1 µM [inhibitor, single point] | 
CC1=NN(c2ccccc2)C(=O)/C1=C/c1cn(C)c2ccccc12 | inconclusive: 29.1 µM [inhibitor, single point] | 
C=CCn1c(C)c(C(C)=O)c(N2CCN(c3ccccc3)CC2)nc1=S | inconclusive: 23.1 µM [inhibitor, single point] | 
CCc1ccc(NC(=O)C2CCCN2S(=O)(=O)c2cccc3nsnc23)cc1 (configuration not stated) | inconclusive: 16.4 µM [inhibitor, single point] | 
COc1cccc(/C=C/C(=O)OCC(=O)N2CCN(c3ccccc3)CC2)c1 |  | inactive: -21.8%
CCNc1nc(N)c(C(=O)C23CC4CC(CC(C4)C2)C3)s1 | inconclusive: 29.1 µM [inhibitor, single point] | 
COc1cc(C(=O)Nc2nnc(CC(C)(C)C)s2)cc(OC)c1OC | active: 13 µM | 
CC(C)CNC(=S)N1CCN(c2nc3ccccc3s2)CC1 | inconclusive: 23.1 µM [inhibitor, single point] | 
CC(=O)N1CCc2c(sc3c2c(=O)n(-c2ccccc2)c(=O)n3CC(=O)c2ccc(F)cc2)C1 |  | inactive: -4.38%
CCOC(=O)c1c(C)[nH]c(N=Nc2ccc(OC)cc2)c1C | inconclusive: 25.9 µM [inhibitor, single point] | 
COC(=O)[C@@H]1C[C@H]2CC[C@H](O)C[C@H]2N1Cc1ccc(N2CCN(C)CC2)cc1 |  | inactive: 2.1%
CC(=O)c1cn(CCOc2ccccc2C)c2ccccc12 | active: 8.2 µM | 
O=C(CSc1nc(-c2ccco2)cc(C(F)(F)F)n1)N1CCSCC1 |  | inconclusive: -31.7% [inhibitor]

Compound | Potency | activity change, negative = growth inhibition
Cc1cc(C)cc(NC(=S)Nc2ccccn2)c1 | active: 13 µM | 
CC(C)c1nc(SCC(=O)NC(=O)NC(C)(C)C)n[nH]1 |  | inactive: -1.92%
CCc1ccccc1NC(=O)c1noc(C(C)C)c1[N+](=O)[O-] | active: 14.6 µM | 
COC(=O)CSc1[nH]c2ccc(F)cc2c1[N+](=O)[O-] | active: 20.6 µM | 
COc1ccc(-c2csc(C(NC(C)=O)c3cccc(F)c3)n2)cn1 (configuration not stated) | active: 14.6 µM | 
Cc1ccc(S(=O)(=O)Nc2ccc3ccccc3c2)cc1 | inconclusive: 16.4 µM [inhibitor, single point] | 
COC(=O)c1cccc(NC(=O)C2COc3ccccc3O2)c1 (configuration not stated) | inconclusive: 17.8 µM [inhibitor, single point] | 
CCCc1nnc2c(N(C)S(=O)(=O)c3ccc(C)cc3)nc3ccccc3n12 | inconclusive: 16.4 µM [inhibitor, partial curve] | 
Cc1cc2c(=O)n(C)c(SCC(=O)Nc3ccccc3C)nc2s1 | inconclusive: 29.1 µM [inhibitor, single point] | 
Nc1nn2cc(-c3ccc(Br)cc3)nc2c2ccccc12 | inconclusive: 29.1 µM [inhibitor, single point] | 
Cc1ccc2c(C(=O)CCl)c(C)[nH]c2c1 | active: 3.66 µM | 
CC(=O)O[C@H]1C[C@@]2(C)[C@@H](C[C@@H](O)[C@H]3[C@@]4(C)CC[C@@H](O)[C@@H](C)[C@@H]4CC[C@@]32C)/C1=C(\CCC=C(C)C)C(=O)O | inactive and inconclusive: 29.1 µM [inhibitor, single point] | 
CCOc1ccc(C(=O)Nc2ccc(Cl)c(-c3nc4cc(C)cc(C)c4o3)c2)cc1 |  | inactive: -23.1%
C/C(=N\OC(=O)c1c(-c2ccccc2Cl)noc1C)c1nccs1 | inconclusive: 29.1 µM [inhibitor, single point] | 
COc1cnc(-c2ccccn2)nc1Oc1ccccc1Cl | inconclusive: 29.1 µM [inhibitor, single point] | 
CCCNC(=O)c1ccccc1NC(=O)c1cccc(-n2cnnn2)c1 | inconclusive: 25.9 µM [inhibitor, single point] | 
CCOC(=O)C1(Cc2ccccc2)CCN(Cc2cc(OC)c3c(c2)OCO3)CC1 | inconclusive: 29.1 µM [inhibitor, single point] | 
Cc1onc(-c2c(Cl)cccc2Cl)c1C(N)=O | inconclusive: 4.11 µM [inhibitor, full curve] | 
COc1ccc(-c2nc3sc(CCNC(=O)c4ccc(C(C)(C)C)cc4)c(C)n3n2)cc1 | inconclusive: 5.8 µM [inhibitor, full curve, poor fit] | 
CCOc1ccccc1C(=O)Nc1cc2c(cc1C)n(C)c(=O)c(=O)n2C | inconclusive: 3.66 µM [inhibitor, partial curve] | 
COc1ccc(C(=O)Nc2ncc3c(n2)CC(c2ccco2)CC3=O)cc1 (configuration not stated) | inconclusive: 23.1 µM [inhibitor, single point] | 
CCOC(=O)C1CCCN(C(=O)C2(c3ccc(Cl)cc3)CCCC2)CC1 (configuration not stated) | inconclusive: 29.1 µM [inhibitor, single point] | 
COc1cc2c(cc1OC)C(C)N(C(=O)CCc1c[nH]c3ccccc13)CC2 (configuration not stated) | inconclusive: 29.1 µM [inhibitor, single point] | 
CCOC(=O)c1c(C)[nH]c(C(=O)CN2C(=O)NC(C)(c3ccc4ccccc4c3)C2=O)c1C (configuration not stated) | inconclusive: 29.1 µM [inhibitor, single point] | 
